Source: PubChem BioAssay AID485344 (National Center for Advancing Translational Sciences (NCATS), 2010)
The whole screen tested about 340,000 compounds, of which about 6,900 (2%) were called active. No stated cut-off is given here; in the data, active means inhibition above about 30%; inactive means below that, where a call was filed. This is a selection; strong and weak results do not stand in their true shares. The source gives no active or inactive call for entries shown without one.

These molecules were tested against D(2) dopamine receptor (Homo sapiens) (UniProt P14416) (assay: HTS Assay for Allosteric Antagonists of the Human D2 Dopamine Receptor: Primary Screen for Antagonists). Details: HEK293 TREx D2 cells, calcium flux, dopamine EC80; at 10 µM; stronger effect = higher value.
Procedure, shortened: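 Tetracycline-induced HEK293 TREx cells expressing D2 receptor forced-coupled to calcium signalling, loaded with no-wash calcium dye. Compounds added and calcium flux read 180 s, then dopamine added at EC80 and read a further 180 s.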
Further: 0% is about no effect.

Sequence of UniProt P14416 (P14416 whole entry, looked up): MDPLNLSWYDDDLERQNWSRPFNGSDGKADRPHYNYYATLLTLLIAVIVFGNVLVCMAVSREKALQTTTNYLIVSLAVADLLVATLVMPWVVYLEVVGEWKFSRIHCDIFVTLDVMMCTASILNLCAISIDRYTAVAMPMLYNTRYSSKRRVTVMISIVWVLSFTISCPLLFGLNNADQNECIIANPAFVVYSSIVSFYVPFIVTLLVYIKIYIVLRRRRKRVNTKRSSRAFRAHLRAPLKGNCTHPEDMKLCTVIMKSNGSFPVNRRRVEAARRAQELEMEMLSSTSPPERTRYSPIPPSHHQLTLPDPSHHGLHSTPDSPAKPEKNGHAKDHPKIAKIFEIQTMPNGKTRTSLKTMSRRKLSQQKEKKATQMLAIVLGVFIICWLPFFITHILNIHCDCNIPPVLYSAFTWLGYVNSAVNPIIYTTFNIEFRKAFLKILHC

SMILES | inhibition
CSc1ccc(C2CC(=O)Oc3c2c(=O)n(C)c2ccccc32)cc1 (stereo not drawn) | -21.8%
COc1ccccc1CNC(=O)C(C)n1ccc2cc(S(=O)(=O)N3CCCC3)ccc21 (stereo not drawn) | 0.891%
COc1ccc(CNC(=O)c2ccc3nc(CCc4ccccc4)oc3c2)cc1 | 12.2%
Cc1ccc(NC(=O)C2CCN(S(=O)(=O)c3ccc4c(c3)NC(=O)CO4)CC2)cc1 | active: 32%
O=S(=O)(NCC1CCN(Cc2ccccc2)CC1)c1ccccc1C(F)(F)F | active: 53.9%
Cc1ccc(NC(=O)CSc2nc3c([nH]c4ccccc43)c(=O)n2-c2ccccc2)cc1Cl | -23.7%
CCOc1ccc(NC(=O)C2CCN(c3nnc(C)c4c(C)n(-c5ccccc5)nc34)CC2)cc1 | 1.52%
CCOC(=O)c1c(C)oc2nc(C)nc(N3CCN(c4ccccc4F)CC3)c12 | 0.129%
Cc1ccc(-c2[nH]c3c(c2-c2c(-n4cccc4)n(C)c(=O)[nH]c2=O)c(=O)[nH]c(=O)n3C)cc1 | 3.07%
Cc1ccc(C2Nc3cc(C)c(C)cc3-n3c(-c4ccccc4)c4c(=O)n(C)c(=O)n(C)c4c32)o1 (stereo not drawn) | 19.2%
Cc1cccc(N2CCN(C(=O)C3CCN(C(=O)c4cc5sccc5n4C)CC3)CC2)c1C | -17.3%
Cc1[nH]n2c(=O)cc(-c3ccc(Cl)cc3)nc2c1-c1ccccc1 | 22.1%
Cc1ccccc1CNC(=O)Cc1ccc(NC(=O)N2CCCCc3ccccc32)cc1 | -2.88%
Cn1c(=O)c2c(nc(N3CCOCC3)n2Cc2cccc(Br)c2)n(C)c1=O | 5.01%
Cc1nn2c(-c3ccco3)ccnc2c1-c1ccc(Br)cc1 | 17.9%
CCOc1ccc(C(=O)c2cn(CC(=O)Nc3cccc(OC)c3)c3cc4c(cc3c2=O)OCCO4)cc1 | -15.4%
Cc1c(C(=O)N2CCCCC2)c(S(=O)(=O)NCc2ccc(N(C)C)cc2)c(C)n1C | 5.33%
Cc1ccc(-c2cc(N)n(-c3ccc(C)cc3)n2)cc1 | -4.58%
CCOC(=O)C1(CCOC)CCN(Cc2cccc(OCc3ccccc3)c2)CC1 | active: 36.9%
N#Cc1ccc(S(=O)(=O)N2CCC(Oc3cccc(C(F)(F)F)c3)CC2)cc1 | -12.3%
CCCNC(=O)C1=CC(c2ccc3c(c2)OCO3)=NS(=O)(=O)N1C | 16.4%
COc1cc(OC)c(OC)cc1CN1CCc2nc(Nc3ccc4c(c3)OCCO4)ncc2C1 | 16.5%
COc1ccc(CNC(=O)C(=O)Nc2c3c(nn2-c2ccccc2)CSC3)cc1 | 22.3%
CCN(c1ccccc1)S(=O)(=O)c1cc(Br)cc2c1N(C(=O)C1CC1)CC2 | -7.33%

SMILES | inhibition
Cc1ccc(C(=O)N2CCc3cc(CNC(=O)CSc4ccccc4)ccc32)cc1 | 15.2%
Cc1ccc(-c2cc(C(=O)NCc3cnn(C)c3C)c3ccccc3n2)cc1C | -2.2%
Cc1cccc(-c2c3c(=O)n(C)c(=O)n(C)c3c3c(C)nc4ccccc4n23)c1 | -26.9%
N#Cc1c(-c2cccs2)cc(-c2cccnc2)nc1N | active: 48.7%
O=C(NCCc1csc(-c2ccc(C(F)(F)F)cc2)n1)c1ccc(F)c(F)c1 | 23.5%
CCOc1ccc(-c2cc(CCCC(=O)NCCc3ccc(Cl)cc3)no2)cc1 | 6.54%
COC(=O)c1c(-c2cccs2)csc1NC(=O)c1ccc(Br)cc1 | 0.779%
COC(=O)c1c(-c2cccs2)csc1NC(=O)c1cccc(Cl)c1 | 3.31%
Cc1cccc(NC(=O)CSc2nc(-c3cccs3)cc(C(F)(F)F)c2C#N)c1C | -15.4%
CCN(c1cccc(C)c1)S(=O)(=O)c1ccc(-n2cccn2)cc1 | 3.52%
CCc1ccc(NC(=O)CCS(=O)(=O)c2cc3c(cc2Cl)NC(=O)CO3)cc1 | 23.4%
O=C(NCc1cccs1)c1nn(-c2ccccc2Cl)nc1CO | -9.35%
COCCCNc1nc2c(S(=O)(=O)c3ccccc3)nnn2c2ccc(Cl)cc12 | 5.4%
CC1=C(C(=O)Nc2ccccc2)C(c2ccccc2C)n2nc(SCC(=O)c3ccc(C)cc3)nc2N1 (stereo not drawn) | 1.65%
Cc1[nH]n(-c2ccccc2)c(=O)c1C(c1cc(Cl)ccc1O)c1c(C)[nH]n(-c2ccccc2)c1=O | 5.82%
CCOC(=O)c1ccccc1NC(=O)N1CCN(Cc2cc(=O)n3nc(-c4ccccc4)sc3n2)CC1 | -20%
CC1CCN(C(=O)Cn2c(=O)n(CCCCCC(=O)NCc3ccccc3Cl)c(=O)c3sccc32)CC1 | 14%
CC(=O)Nc1cc(-c2nc3cc(Cl)ccc3o2)ccc1C | 11%
Cc1cc(Cl)ccc1NC(=O)Cn1nc(C)c2c(C)n(-c3ccccc3)nc2c1=O | -1.99%
Cc1ccc(Cl)cc1Nc1nn2c(=O)c3ccc(C(=O)Nc4ccc(F)cc4)cc3nc2s1 | 11.2%
CN(C)C1(CNC(=O)COc2ccc([N+](=O)[O-])cc2)CCCCC1 | 16.7%
CCC1CN(C(=O)N2CCC(C(=O)NCCc3cc(OC)ccc3OC)CC2)c2ccccc2O1 (stereo not drawn) | -2.07%
CCN(CC)S(=O)(=O)c1ccc2c(c1)N(CC(=O)N1CCN(c3cccc(Cl)c3)CC1)C(=O)CO2 | -6.12%
CCn1c(CN2CCOCC2)nc2cc(NC(=O)c3ccccc3[N+](=O)[O-])ccc21 | 8.64%

SMILES | inhibition
Cc1ccc(NC(=O)N2CCc3cc(S(=O)(=O)N4CCC(C)CC4)ccc32)cc1 | 2.77%
CC(C)Oc1ccc(CNC(=O)c2ccc(CS(=O)c3cccc(Cl)c3)o2)cc1 (stereo not drawn) | -5.97%
COc1ccccc1N1CCN(C(=O)Cn2ncc3ccsc3c2=O)CC1 | 0.858%
COc1cccc(-n2cc(C(=O)Nc3cccc(C(F)(F)F)c3)c3ccccc3c2=O)c1 | 12.8%
CCN(C(=O)Cn1c(=O)n(CCCS(=O)(=O)C2CCCCC2)c(=O)c2ccccc21)c1cccc(C)c1 | -7.82%
O=C(Nc1nnc(-c2cc(Cl)ccc2Cl)o1)c1ccc2c(c1)OCCO2 | -6.58%
CCOC(=O)C1CCC(CN(Cc2ccc(OC)cc2)S(=O)(=O)c2ccc(F)c(C(=O)Nc3ccc(C)c(C)c3)c2)CC1 (stereo not drawn) | -24.4%
CCc1ccc(NS(=O)(=O)c2ccc3oc(=O)c4ncn(CC)c4c3c2)cc1 | 7.37%
O=c1cc(CSc2ncn[nH]2)[nH]c2ccc(F)cc12 | 5%
COc1ccc(-n2c(Cc3ccccc3)nnc2SCc2nc(-c3cccs3)no2)cc1 | 4.27%
CCCc1cc(=O)n2c(C(=O)Nc3ccc(OCC)cc3)c(C(=O)Nc3ccc(C)cc3)sc2n1 | -16.6%
COc1ccc(NC(=O)CCS(=O)(=O)c2nc(-c3cccs3)cc(C(F)(F)F)n2)cc1 | 10.9%
COc1cccc(C2c3c(oc4cc(C)cc(C)c4c3=O)C(=O)N2CCc2ccc(OC)c(OC)c2)c1 (stereo not drawn) | 12.2%
O=[N+]([O-])c1ccc(N2CCN(CCO)CC2)cc1NCc1ccco1 | active: 34.1%
Cn1c(COc2ccccc2)nnc1SCc1cc(=O)[nH]c2ccccc12 | active: 38.7%
CCn1c(SCc2ccccc2C)nc(=O)c2c(C(=O)OC)cc(C3CC3)nc21 | -10.8%
Cc1ccc2c(c1)c1c(c(=O)n(-c3cccc(Cl)c3)c(=O)n1CC(=O)NCCC1=CCCCC1)n2C | -0.483%
COc1ccccc1CNC(=O)CCC1N=C2c3ccccc3N=C(SCC(=O)Nc3ccc(F)cc3)N2C1=O (stereo not drawn) | -2.69%
CN(CC(=O)NCc1ccc(Cl)cc1)S(=O)(=O)c1ccc2[nH]c3c(c2c1)CCCC3 | 1.16%
COc1ccc(CNc2nc(-c3ccccc3)nn2S(=O)(=O)c2ccccc2)cc1 | -5.53%
COC(=O)CN1C(C(=O)c2ccccc2)=C(OC(=O)c2ccc(F)cc2)c2ccccc2S1(=O)=O | -19.6%
Cc1ccc(S(=O)(=O)c2cnc(SCC(=O)Nc3ccc4c(c3)OCCO4)[nH]c2=O)cc1C | 8.58%
COc1cc2nc(NC(=O)c3ccc(S(=O)(=O)N4CCc5ccccc54)cc3)sc2cc1OC | -6.47%
COc1cccc(-n2c(C)nc3cc(C(=O)O)ccc32)c1 | 3.98%

SMILES | inhibition
COc1cccc(-c2nc3c(C#N)c[nH]n3c2NC2CCCC2)c1OC | 4.72%
CC1CCCCN1C(=O)c1ccc2c(c1)N(Cc1ccc(F)cc1)C(=O)c1ccccc1S2(=O)=O (stereo not drawn) | 15.3%
CCN(CCCNC(=O)c1cc2c(=O)n(CC)c3ccccc3c2s1)Cc1ccccc1 | -9.96%
Cc1cc(OCC(=O)N2CCC(c3nc4ccccc4s3)CC2)ccc1Cl | -5.95%
O=C(CSc1ncc(-c2ccccc2)[nH]1)Nc1cccc(Br)c1 | 3.12%
Cc1ccc(-c2nnn3c2nc(NC2CCC(C)CC2)c2ccccc23)cc1 (stereo not drawn) | 6.51%
COc1ccc(CCNC(=O)CSc2nc3[nH]ncc3c(=O)n2-c2ccccc2OC)cc1OC | active: 36.7%
CC(CCc1ccc(O)cc1)NCc1ccc(Br)cc1 (stereo not drawn) | active: 31.7%
Cc1cc2n(n1)CCCN2C(=O)Nc1ccc(F)c(Cl)c1 | 14.2%
CCC(=O)N1CCc2cc(S(=O)(=O)NCc3ccc(C)cc3)ccc21 | -4.53%
CCOc1ccc(N2CC(C)Cn3c2nc2c3c(=O)n(Cc3c(F)cccc3Cl)c(=O)n2C)cc1 (stereo not drawn) | 7.16%
O=C(Cn1cc(C(=O)c2ccco2)c2ccccc21)Nc1ccccc1 | -2.5%
CCOc1ccc(NC(=O)c2ccc(F)c(S(=O)(=O)N(Cc3ccc(C(=O)OC)cc3)Cc3ccc(OC)c(OC)c3)c2)cc1 | 7.13%
CN(C)c1ncc(C(=O)NCc2ccc(Cl)cc2)cn1 | 4.88%
COc1ccccc1NC(=O)C1=C(C)Nc2nc3ccccc3n2C1c1ccccc1Cl (stereo not drawn) | 0.834%
CC(C)Nc1nc(Cl)nc(NN(C)c2nc(N(C)C)nc(N(C)C)n2)n1 | active: 34.3%
CC(C)(C)C1CCc2c(sc(NC(=O)c3noc4c3CCCC4)c2C#N)C1 (stereo not drawn) | 1.48%
CC(=O)N1CCc2c(sc3c2c(=O)n(-c2ccccc2Cl)c(=O)n3Cc2cccc(C)c2)C1 | 2.93%
COc1ccccc1NC(=O)CSc1cn(CC(=O)N2CCCC2)c2ccccc12 | 1.23%
OCCN(Cc1nc(-c2ccc3c(c2)OCO3)no1)Cc1cccs1 | active: 38.8%
CCC1CCCCN1C(=O)CSc1nnc(-c2ccc(OC)c(OC)c2)o1 (stereo not drawn) | -14.3%
